The record followed here is ChEMBL document CHEMBL4888484, “Replenishing the malaria drug discovery pipeline: Screening and hit evaluation of the MMV Hit Generation Library 1 (HGL1) against asexual blood stage Plasmodium falciparum ,using a nano luciferase reporter read-out” (2022).

Screen size: about 150,000 compounds; about 540 (0.36%) showed an effect of 50% or more. This is one part of the list.

The subject of the assay is Plasmodium falciparum. In words: Primary screen in NF54 nanoGlo assay, in single point, at 2uM, 72h; a lower Z score goes with more inhibition. Format: functional, Erythrocyte. Particulars: timepoint 72 hour.
Usually % Inhibition stands for the change of the read-out against control, counted positive when it falls. `O=C(C1CC=CCC1)N1CCCC1c1nc(-c2ccccc2F)c[nH]1` (stereo unspecified): the “% Inhibition” value is -2% and the Z score is 0.35.
In the case of `Cc1nc(N)sc1C(=O)NCC[C@H]1CCCCO1`, the “% Inhibition” value was -2% and the Z score came out at 0.4.
As to `O=C(COc1ccc2ccccc2c1)N1CCC(=C2CC2)CC1`, the “% Inhibition” value is on record as -11% and the Z score is recorded as 1.26.
In the case of `C[C@H]1CS(=O)(=O)C[C@H]1NC(=O)C1(C)CC=CCC1` (stereo partly specified), the “% Inhibition” value is recorded as -11% and the Z score came to 0.94.
In the case of `Cn1ccnc1COC(=O)c1ccc(N2CCCC2)nc1`, the “% Inhibition” value is -9% and the Z score amounted to 1.04.
Consider `O=C(NCc1cccnc1)c1cn2c(n1)C(=O)N[C@H](c1ccc(F)cc1)C2`, for which the “% Inhibition” value is -5% and the Z score is 0.78.
For the molecule `COc1ccc(CC(=O)Nc2ccnn2C2CCCCC2)cc1C`, the “% Inhibition” value is reported as -8% and the Z score is 1.02.
`COc1cc2c(cc1C(=O)N[C@@H]1COCC[C@@H]1OCCN(C)C)CCC2`: the “% Inhibition” value is given as -11% and the Z score is given as 1.23.
Consider `Cn1cnn(CC(=O)NC2CCCC2)c1=O`, for which the “% Inhibition” value is recorded as -10% and the Z score was determined as 1.28.
In the case of `CCCC[C@H](CC)CNC(=O)c1cnc2c(-c3ccc4c(c3)OCO4)cnn2c1C`, the “% Inhibition” value is -5% and the Z score is recorded as 0.83.
For the molecule `O=c1[nH]nc([C@@H]2CCCO2)cc1C(F)(F)F`, the “% Inhibition” value is -5% and the Z score was 0.78.
With `Cc1cc(C)n(CC(=O)N2CCC[C@H]2c2nc(CCOCc3ccccc3)no2)n1`, the “% Inhibition” value is given as -8% and the Z score was found to be 1.
As to `c1cc2c(cc1OCCNCc1nc3c(s1)CCC3)OCO2`, the “% Inhibition” value is given as -16% and the Z score was 2.02.
Take `CCOC(=O)CC1(NC(=O)c2cn(Cc3ccc(Cl)cc3)nn2)CCCCC1`: the “% Inhibition” value came to 1% and the Z score was -0.09.
In the case of `COCC(=O)N[C@@H]1CC[C@@]2(OC)CCN(C(=O)Cn3nc(C)cc3C)[C@H]2C1`, the “% Inhibition” value is reported as -16% and the Z score was determined as 1.45.
In the same order, the values of `O=C(c1c[nH]nc1-c1ccsc1)N1CCn2nc(C3CC3)cc2C1` are -5% and 0.54.
With `O=C(c1ccc(Cl)cc1OC1CCN(Cc2cc(F)cc(F)c2)CC1)N1CCCCC1`, the “% Inhibition” value is -5% and the Z score is 0.7.
For `Cc1nnc2ccc(N3CCC4(CCCCC4)C3)nn12`, in that order: 17% and -1.93.
`CC[C@@H](Cn1cnc(-c2ccccc2)c1-c1nccs1)N1CCOCC1`: the “% Inhibition” value is 1% and the Z score is reported as -0.18.
As for `O=C(NCc1noc(-c2ccco2)n1)c1cnc2ccccn2c1=O`, the “% Inhibition” value was -5% and the Z score is 0.87.
Turning to `O=C(NCCn1cccn1)N1CCC=C(c2ccccc2)C1`, the “% Inhibition” value was -5% and the Z score came out at 0.91.
For `Cc1cc(C)n(-c2nc3c(c(=O)n2CC(=O)NCc2ccc4c(c2)OCO4)CCCC3)n1`, the “% Inhibition” value is 0% and the Z score was determined as 0.01.
Regarding `O=C(c1cc[nH]n1)N1CCN(c2nncc3ccccc23)CC1`, the “% Inhibition” value is -27% and the Z score is 5.71.
Take `CC[C@@H](C(=O)N1CCN(c2nccs2)CC1)n1cccn1`: the “% Inhibition” value is on record as -7% and the Z score is given as 0.95.
In the same order, the values of `COCCNc1nc(-c2cccc(C)c2)c2c(N)n(C(C)(C)C)nc2n1` are -10% and 1.78.
Regarding `Cc1nc(NC2CC(C)(C)C2)cc(-c2cccnc2)n1`, the “% Inhibition” value is reported as -8% and the Z score was determined as 1.6.
On to `CCS(=O)(=O)N1CCC[C@@](OC)(C(F)(F)F)C1`, for which the “% Inhibition” value is on record as -12% and the Z score is recorded as 2.4.
For `CC(C)C(=O)N1C[C@@H]2COCCN2C2(CN(C(=O)Nc3ccc(F)cc3)C2)C1`, in that order: -10% and 1.44.
Consider `CCOC(=O)N1CCN(C(=O)COc2ccc3c(C(C)C)cc(=O)n(CC)c3c2)CC1`, for which the “% Inhibition” value is reported as -7% and the Z score was 1.25.
For `COc1ccc(CNC(=O)OCc2nccnc2C(=O)Nc2ccc(Br)cn2)cc1`, the “% Inhibition” value is recorded as -5% and the Z score was determined as 0.97.
For `Cc1nc(C(=O)NCC2CCN(Cc3scnc3C)CC2)cs1`, the “% Inhibition” value turned out to be 3% and the Z score is -0.49.
As for `CC(C)c1nc2c([nH]1)C[C@@H](C(=O)N1CCCC(F)(F)CC1)CC2`, the “% Inhibition” value is -6% and the Z score turned out to be 0.94.
For the molecule `COCc1c(C(=O)N2CC[C@H](CCc3noc(C4CC4)n3)C2)noc1C`, the “% Inhibition” value was -1% and the Z score is 0.22.
On to `Cc1oc2ccccc2c1C(=O)N1CCCC[C@@H]1CCS(C)(=O)=O`, for which the “% Inhibition” value is recorded as -5% and the Z score was determined as 1.03.
In the case of `O=C(CCC1CCCC1)NCc1cccc(-c2ncc(-c3ccc(F)cc3)[nH]2)c1`, the “% Inhibition” value came to 2% and the Z score is reported as -0.26.
With `CCc1nc(C)c(CN2CC[C@@]3(CCCN(Cc4cccc(OC)c4OC)C3)C2)[nH]1`, the “% Inhibition” value is listed as 1% and the Z score is -0.07.
In the same order, the values of `COc1ccc(Oc2c(Cl)cnn(-c3c(Cl)cc(F)cc3Cl)c2=O)cc1` are -5% and 0.67.
On to `O=C(c1cccc(F)c1)N(Cc1c(-c2ccccc2)noc1N1CCCCC1)C1CC1`, for which the “% Inhibition” value is reported as -6% and the Z score is 0.88.
For `CC(NCC(O)c1cc(Cl)c2c(c1)OCCO2)c1ccc(C(F)F)nc1` (stereo unspecified), the “% Inhibition” value is 6% and the Z score was -0.68.
In the case of `COc1ccccc1N1CCN(C(=O)c2nccnc2NC(=O)c2ccccc2)CC1`, the “% Inhibition” value was 2% and the Z score was -0.42.
Regarding `Cc1noc(C)c1C(=O)NCc1nc(C2CCC(F)(F)CC2)no1`, the “% Inhibition” value is reported as -10% and the Z score was determined as 1.22.
Take `O=C(NCc1cccc(Cl)c1)c1ccc(-c2[nH]nc3c2CCCc2ccccc2-3)cc1`: the “% Inhibition” value stood at 2% and the Z score is given as -0.2.
As to `O=C(CCc1conc1-c1cccc(F)c1)NCC1CCCCC1`, the “% Inhibition” value is -13% and the Z score came to 1.78.
For `COc1cccc([C@@H]2CNC(=O)c3nc(-c4csc(C)n4)[nH]c3C2)c1`, the “% Inhibition” value is given as -11% and the Z score came to 1.39.
Regarding `OCCO[C@H]1C[C@@H](O)C12CCN(Cc1nc3c(s1)CCCC3)CC2`, the “% Inhibition” value is given as -14% and the Z score is 1.5.
In the same order, the values of `Cc1nc(C(=O)N(CCc2c[nH]c3ccccc23)C2CCCCC2)cs1` are 4% and -0.81.
In the case of `CNc1nc2c(c(C(=O)N3CCCC3)n1)CN(C[C@H](C)c1ccccc1)CC2`, the “% Inhibition” value is on record as -7% and the Z score is 1.33.
Regarding `Cc1ccccc1C(=O)N1CCC[C@@H]1COc1ccc(C(=O)N2CCOCC2)cc1`, the “% Inhibition” value is listed as -11% and the Z score amounted to 2.03.
On to `Cc1nc(C(C)(C)NCC(=O)NCc2cccs2)sc1C`, for which the “% Inhibition” value is recorded as -14% and the Z score amounted to 2.28.
Consider `CC1CC1C(=O)NCCC(=O)Nc1ccc(N(C)C)cc1` (stereo unspecified), for which the “% Inhibition” value is on record as -7% and the Z score amounted to 0.72.
Consider `C[C@]1(O)C[C@@H](NC(=O)N[C@H]2C[C@H](c3ccc(Br)cc3)C2)C1`, for which the “% Inhibition” value was -1% and the Z score was found to be 0.15.
`CCN(CC)C(=O)Cn1c(=O)n(Cc2ccccc2)c(=O)c2c1c(C)nn2CC`: the “% Inhibition” value is reported as 5% and the Z score is -0.64.
In the same order, the values of `COC(=O)CS(=O)(=O)N[C@@H](C)c1cccc(Cl)c1` are 5% and -1.12.
In the same order, the values of `COc1ccc(C[C@H](C)C(=O)NCc2nccc(N)n2)cc1F` are -7% and 0.99.
With `COCC(=O)N1CCCN(C(=O)c2cn(C)c3ccc(C)cc3c2=O)CC1`, the “% Inhibition” value was -14% and the Z score was 2.59.
Take `Cc1nc([C@H](C)NC(=O)c2cnc(C3CC3)nc2)n[nH]1`: the “% Inhibition” value was 8% and the Z score is recorded as -1.09.
Consider `Cc1ccc2nc(C)c(-c3nc(-c4cccnn4)no3)n2c1`, for which the “% Inhibition” value is recorded as -14% and the Z score was determined as 2.25.
With `CC(C)C(C(=O)NCC1CCCO1)C(C)NC(=O)OC(C)(C)C` (stereo unspecified), the “% Inhibition” value turned out to be 13% and the Z score is on record as -1.46.
Turning to `CN1CCN(CC2=Nc3ccccc3S(=O)(=O)N2)c2ccccc21`, the “% Inhibition” value is given as -6% and the Z score came to 1.05.
For the molecule `Cc1nsc(C(=O)N[C@H]2CCS(=O)(=O)C3(CCC3)C2)n1`, the “% Inhibition” value is given as -8% and the Z score was 1.56.
Regarding `O=C(OCc1ccccc1)N1C2C=CC(CC2)C1c1ccc(OCc2ccccc2)cc1` (stereo unspecified), the “% Inhibition” value is on record as -24% and the Z score is 2.87.
In the case of `Cn1cc(CN(C(=O)C[C@H]2CCCO2)C2CC2)cn1`, the “% Inhibition” value was -6% and the Z score was found to be 1.17.
Consider `CN(C[C@H]1CCOC1)S(=O)(=O)c1ccc2c(c1)CCCC2`, for which the “% Inhibition” value was -7% and the Z score is 0.93.
Regarding `Cc1ccc(-c2cnc(Oc3ccc(C(=O)NCc4ccccc4C)cc3)nc2)cc1`, the “% Inhibition” value is on record as -5% and the Z score is listed as 0.61.
As to `CCCOc1ccc(CN(CCOC)CCOc2ccccc2F)cc1CO`, the “% Inhibition” value was -17% and the Z score is 2.5.
For `Cc1ncsc1C(=O)N(C)Cc1ccc(C2CC2C)o1` (stereo unspecified), in that order: -13% and 1.88.
For `Cc1ccc2nc(COc3ccc(C)nc3)cn2c1`, in that order: -16% and 2.54.
For `CC(=O)N1N=C(c2cccc(Cl)c2)O[C@H]1c1ccc(OCc2ccccc2)cc1`, the “% Inhibition” value was found to be 5% and the Z score is -0.61.
As for `CCc1ccccc1NC(=O)CN1CCn2c(nnc2C(F)(F)F)C1`, the “% Inhibition” value amounted to 2% and the Z score was -0.42.
Turning to `Cc1cc2nc(-c3ccc(C)c(NC(=O)c4cc5ccccc5o4)c3)oc2cc1C`, the “% Inhibition” value was -10% and the Z score was found to be 1.63.
For `Cc1cc(C(=O)N2CCC3(CCC(=O)N([C@H]4CCN(C)C4)C3)CC2)cs1`, in that order: 3% and -0.54.
Turning to `CO[C@H]1[C@@H]2CC[C@H]1CN(Cc1cc(C#CCO)cs1)C2`, the “% Inhibition” value is reported as -8% and the Z score is reported as 0.85.
As to `Cc1nc([C@H](C)NC(=O)c2ccccc2-c2nc[nH]n2)n[nH]1`, the “% Inhibition” value is -2% and the Z score was 0.32.
Take `O=C(c1cscn1)N1Cc2cccnc2C1`: the “% Inhibition” value is on record as -19% and the Z score stood at 2.22.
For the molecule `CS(=O)(=O)C[C@H]1CCCN(Cc2ccc3cccc(Cl)c3n2)C1`, the “% Inhibition” value is recorded as -4% and the Z score was 0.51.
In the case of `Cc1cc(OCC(=O)N(C(C)C)C(C)C)c2cnn(C)c2n1`, the “% Inhibition” value is reported as -9% and the Z score was 1.26.
For `Cc1cnn(CCNC(=O)CCc2cn[nH]c2)c1`, the “% Inhibition” value was -7% and the Z score came out at 0.96.
With `CCc1nn2c(-c3ccccn3)ccnc2c1-c1cccc(Cl)c1`, the “% Inhibition” value was -19% and the Z score turned out to be 2.65.
As for `CC(C)C[C@H](C)N(C)C(=O)c1cc(F)cc(F)c1`, the “% Inhibition” value is listed as -16% and the Z score is 1.99.
For `Cc1ccc(-c2csc(NC(=O)Cc3cccc4ccccc34)c2C(=O)O)cc1C`, the “% Inhibition” value is recorded as -11% and the Z score worked out at 1.86.
For `CC1CC(C)CC2(C1)NC(=O)N(Cc1ccc(S(C)(=O)=O)o1)C2=O` (stereo unspecified), the “% Inhibition” value is listed as -1% and the Z score came out at 0.17.
Take `O=C1CCCN1Cc1cn(C2CN(C(=O)COc3ccc(Cl)cc3)C2)nn1`: the “% Inhibition” value is on record as -16% and the Z score came out at 2.5.
For `CCOC1CC(N(C)C(=O)C2CC3CCC2C3)C1(C)C` (stereo unspecified), the “% Inhibition” value was 0% and the Z score worked out at 0.02.
